These results are taken from publication doi:10.1101/2021.08.01.454609.

This assay deals with wild-type coilin-CFP / coilin-YFP for FRET in HeLa cells (human), P38432. Nature of the assay: FRET or BRET. The settings on record: remark: other sources report otherwise. For orientation: Bioluminescence resonance energy transfer reports proximity on the nanometre scale.

B1: wild-type coilin-CFP / coilin-YFP for FRET in HeLa cells (natural protein)
chain: MAASETVRLRLQFDYPPPATPHCTAFWLLVDLNRCRVVTDLISLIRQRFGFSSGAFLGLYLEGGLLPPAESARLVRDNDCLRVKLEERGVAENSVVISNGDINLSLRKAKKRAFQLEEGEETEPDCKYSKKHWKSRENNNNNEKVLDLEPKAVTDQTVSKKNKRKNKATCGTVGDDNEEAKRKSPKKKEKCEYKKKAKNPKSPKVQAVKDWANQRCSSPKGSARNSLVKAKRKGSVSVCSKESPSSSSESESCDESISDGPSKVTLEARNSSEKLPTELSKEEPSTKNTTADKLAIKLGFSLTPSKGKTSGTTSSSSDSSAESDDQCLMSSSTPECAAGFLKTVGLFAGRGRPGPGLSSQT[about 200 residues not listed]
On to B1, for which the apparent FRET efficiency came out at 20%.
